Source: PubChem BioAssay AID588855 (National Center for Advancing Translational Sciences (NCATS), 2011)
About 5,000 (1.2%) of roughly 410,000 compounds were called active. The shares of active, inactive and inconclusive entries below differ from those in the screen. Calls follow the shape of the dose curve; as a rule, active = well fitted inhibition curve with a large enough effect; inconclusive = small, poorly fitted or top-dose-only effect; inactive = no such curve, though single readings can be large or run the other way. Potencies of inconclusive entries are doubtful fits and often do not repeat.

Assay: qHTS for Inhibitors of TGF-b; also: nearly all actives have a fitted effect of over 65% in size
Conditions: HepG2 CAGA-GFP TGF-b/SMAD3 reporter, GFP fluorescence, 18 h, TGF-beta stimulated, 500 pg/mL final; series mostly up to 46.1 µM; activity, negative = inhibition: at the top concentration
Procedure, shortened: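 TGF-beta reporter screen: HEPG2 CAGA-GFP, 1% FBS, 500 pg/mL TGF-beta final, 18 h; per-cell GFP summed per well; curves fitted and categorized by class.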
% is scaled to controls: 0 for no effect and ±100 for the full control effect; potency is read from the fitted curve at half-maximal effect; tags tell the direction and shape of the fitted curve.

SMILES | Potency | activity, negative = inhibition
O=C(CCSCc1ccccc1Cl)N1CCN(c2ccc(F)cc2)CC1 | inconclusive: 25.1 µM [inhibitor, partial curve, poor fit] | 
CCCCC(=O)NC(c1ccccc1Cl)c1ccc2cccnc2c1O (stereo not drawn) | inconclusive: 7.08 µM [inhibitor, partial curve] | 
CC1CC1C(=O)N(C)CC(=O)Nc1cccc(F)c1 (stereo not drawn) |  | inactive: -0.0742%
Cc1cccc(N(C)S(=O)(=O)c2c[nH]c3ccc([N+](=O)[O-])cc23)c1 | inconclusive: 35.5 µM [inhibitor, single point] | 
Clc1ccccc1/C=N/N1CCN(Cc2ccccc2)CC1 | inconclusive: 12.6 µM [inhibitor, partial curve] | 
O=C1[C@H]2CCC=C[C@H]2[C@H](c2ccccc2Br)N1Cc1ccccc1 | inconclusive: 15.8 µM [inhibitor, single point] | 
O=C(C=Cc1cccc(O)c1)c1ccccc1O | inconclusive: 35.5 µM [inhibitor, single point] | 
Cc1c(Cl)cccc1NC(=O)C(=O)NCC(c1cccnc1)N1CCN(c2ccccc2)CC1 (stereo not drawn) | inconclusive: 5.62 µM [inhibitor, full curve, poor fit] | 
CC1(C)SC2c3ccccc3C(=O)N2C1C(=O)O (stereo not drawn) |  | inactive: 0.836%
COc1ccc(-c2cc(C(F)(F)F)nc(SCCC(=O)Nc3cccc(O)c3)n2)cc1 | inconclusive: 22.4 µM [inhibitor, single point] | 
Cc1ccc(NC(=O)Nc2ccc3c(c2)CCC3)cc1 |  | inactive: -7.26%
COc1ccc([N+](=O)[O-])cc1NS(=O)(=O)c1ccccc1 | inconclusive: 7.08 µM [inhibitor, partial curve, poor fit] | 
CCn1c(=O)n(-c2ccc(Cl)cc2)c(=O)c2c3c(sc21)COC(C)(C)C3 |  | inactive: -0.656%
CCc1noc(-c2ccc(N(C)Cc3ccc(OC)cc3)c([N+](=O)[O-])c2)n1 | inconclusive: 0.178 µM [inhibitor, full curve, poor fit] | 
CCOc1ccc(CCNC(=O)c2sc3ncccc3c2-n2c(C)ccc2C)cc1 | inconclusive: 22.4 µM [inhibitor, single point] | 
CC1CCN(C(=O)c2[nH]cnc2C(=O)Nc2ccc(Cl)cc2)CC1 | inconclusive: 35.5 µM [inhibitor, partial curve, poor fit] | 
Cc1ccc(C)c(NC(=O)COc2coc(CN3CCc4ccccc4C3)cc2=O)c1 |  | inactive: -7.57%
CCc1ccc(Nc2cc(C(=O)NCCCN(C)c3ccccc3)c3ccccc3n2)cc1 | inconclusive: 35.5 µM [inhibitor, single point] | 
CCCn1c(NCc2ccco2)nc2c1c(=O)n(C)c(=O)n2C | inconclusive: 11.2 µM [inhibitor, single point] | 
O=C1CN(C(=O)COC(=O)c2ccc(N3CCCCCC3)c([N+](=O)[O-])c2)c2ccccc2N1 |  | inactive: -13.7%
O=C(CSc1nnc(-c2ccc(Br)cc2)o1)N1CCN(C(=O)c2ccco2)CC1 |  | inactive: 7.33%
CC12CCC(C(=O)Nc3cc(Cl)ccc3Cl)(C(Br)C1=O)C2(C)C (stereo not drawn) | inconclusive: 0.282 µM [inhibitor, full curve, poor fit] | 
COc1ccccc1N1CC(O)=C(c2nc3ccccc3c(=O)[nH]2)C1=N |  | inactive: -2.96%

SMILES | Potency | activity, negative = inhibition
COc1ccc(-c2ccc([C@H]3[C@H]4C=CC[C@@H](C)[C@@H]4C(=O)N3Cc3ccccc3)c(F)c2)cc1 | inconclusive: 15.8 µM [inhibitor, single point] | 
Cc1cccc(C(=O)Nc2ccc(C(=O)N/N=C/c3ccco3)cc2)c1 |  | inactive: -1.59%
CCc1nnc(N/N=C/c2ccccc2F)n1N | inconclusive: 25.1 µM [inhibitor, single point] | 
O=C(O)c1cc(C(=O)O)c(-c2ccccc2)c(C(=O)O)c1 | inconclusive: 11.2 µM [inhibitor, partial curve, poor fit] | 
Cc1ccc(S(=O)(=O)NCc2ccc(C(=O)N3CCN(Cc4ccccc4)CC3)cc2)cc1 | inconclusive: 11.2 µM [inhibitor, partial curve, poor fit] | 
COc1ccc(S(=O)(=O)c2ccc(O)cc2)cc1 |  | inactive: 13.8%
CN(C)c1cccc(C(=O)N2CCC(c3ccncc3)CC2)c1 |  | inactive: -27.9%
CCN(C(=O)c1cc(S(=O)(=O)N2CCOCC2)cn1C)c1cccc(C)c1 |  | inactive: 6.48%
c1ccc(-c2nnc3oc(-c4cccs4)nn23)cc1 | inconclusive: 35.5 µM [inhibitor, single point] | 
CCOc1ccccc1C1C2CCCCC2(O)CCN1C(=O)c1cccs1 (stereo not drawn) |  | inactive: -13.6%
C#CCOCCOCCOCCNc1nc(N2CCN(C(=O)CCCCCCCCCCNC(=O)[C@@H](CCSC)n3cc(CCO)nn3)CC2)nc(N2CCN(C(=O)CCCCCCCCCCNC(=O)[C@H](CCSC)n3cc(CCO)nn3)CC2)n1 | inconclusive: 7.08 µM [inhibitor, partial curve, poor fit] | 
O=C(Nc1nnc(-c2ccc3c(c2)CCCC3)o1)C1CCCCC1 |  | inactive: 5.67%
CCOc1ccc(CNC(=O)CN2C(=O)C3CCCCN3c3ccc(C(=O)N4CCCC4)cc32)cc1 (stereo not drawn) |  | inactive: -11.3%
CC(C)Oc1ccc(C(=O)N2CC(=O)Nc3ccc(F)cc3C2c2ccc(F)cc2)cc1 (stereo not drawn) |  | inactive: -14.2%
Cc1ccc(C(=O)N/N=C/c2ccc(-c3cccc(C(F)(F)F)c3)o2)cn1 | inconclusive: 10 µM [inhibitor, partial curve, poor fit] | 
O=C(NCCc1ccc(Cl)cc1)c1nc(-c2cccc(F)c2)n2c1CCCCC2 | inconclusive: 20 µM [inhibitor, single point] | 
CCCN1CCN(c2ncnc3sc(C(=O)Nc4cccc(Cl)c4C)c(C)c23)CC1 | inconclusive: 35.5 µM [inhibitor, partial curve, poor fit] | 
O=C(NC(=S)NC(CO)Cc1ccccc1)c1ccc(F)cc1 (stereo not drawn) |  | inactive: -14.4%
CC(=O)c1cccc(NC(=O)c2ccc(CN3CCc4ccccc4C3)cc2)c1 | inconclusive: 7.08 µM [inhibitor, full curve] | 
CCCSc1nc2c(c(=O)[nH]1)C(c1ccc(F)cc1F)CC(=O)N2 (stereo not drawn) |  | inactive: 15.2%
O=C(NCC(c1ccco1)N1CCc2ccccc21)c1ccccc1F (stereo not drawn) |  | inactive: -0.914%
O=C1CCc2ccccc2N1Cc1ccccc1 | inconclusive: 5.62 µM [inhibitor, single point] | 
COc1ccc(C2C3=C(CC(C)(C)CC3=O)Nc3cc4c(cc32)OCO4)cc1 (stereo not drawn) |  | inactive: -20.8%

SMILES | Potency | activity, negative = inhibition
Cc1cc2n(n1)CCC(=O)N2Cc1ccc(C(=O)Nc2ccc(Br)c(C)c2)cc1 | inconclusive: 35.5 µM [inhibitor, single point] | 
Cc1cc2oc(=O)cc(-c3ccccc3)c2c(C)c1-c1ccc(N(C)C)cc1 | inconclusive: 14.1 µM [inhibitor, single point] | 
COc1ccc(SC[C@H](C)CN2CC[C@H](NC(=O)OCc3ccccc3)CCC2=O)cc1 | inactive | 
CN(C(=O)c1ccc2c(c1)N(Cc1ccccc1F)C(=O)c1ccccc1S2(=O)=O)C1CCCCC1 | inconclusive: 10 µM [inhibitor, partial curve, poor fit] | 
CC(C)c1ccc(N2C(=O)CC(Sc3ncccn3)C2=O)cc1 (stereo not drawn) |  | inactive: 7.37%
O=C1/C(=C/c2ccc(O)cc2)CCc2ccc([N+](=O)[O-])cc21 | inconclusive: 3.16 µM [inhibitor, full curve] | 
CCN(CC)CCNC(=O)c1[nH]c2ccccc2c1Sc1ccc(Cl)cc1 | inconclusive: 35.5 µM [inhibitor, single point] | 
CC1=CC(=O)C(C(C)C)=CC1=NC(=O)c1ccc(C)cc1 |  | inactive: -9.86%
CCOc1ccc2nc(NC(=O)COC)sc2c1 | inconclusive: 35.5 µM [inhibitor, single point] | 
Cc1ccc(NS(=O)(=O)c2cc(Br)cnc2N)cc1C | inconclusive: 22.4 µM [inhibitor, single point] | 
COc1ccccc1CN1C[C@@H]2C[C@@H](c3[nH]c4ccc(C)cc4c3C)N3CCC[C@@]23C1=O | inconclusive: 10 µM [inhibitor, partial curve, poor fit] | 
CC(C)NC(=O)C1(C)CCCCN1Cc1ccc(OCc2ccccc2)cc1 (stereo not drawn) | inconclusive: 20 µM [inhibitor, single point] | 
CC(=O)N1CCC(N(Cc2ccco2)C(=O)Nc2ccc(Br)cc2F)CC1 |  | inactive: 0.227%
CS(=O)(=O)N(CC(=O)N/N=C/c1cc2c(cc1Br)OCO2)c1ccccc1Br | inconclusive: 35.5 µM [inhibitor, partial curve, poor fit] | 
NS(=O)(=O)c1ccc(CCNC(=S)Nc2ccc(S(N)(=O)=O)cc2)cc1 | inconclusive: 7.08 µM [inhibitor, partial curve, poor fit] | 
COc1ccc(NC(=O)C(=O)NCC(c2cccnc2)N2CCc3ccccc3C2)cc1 (stereo not drawn) | inconclusive: 14.1 µM [inhibitor, single point] | 
Cc1ccccc1Cn1cc(NC(=O)c2cc(C3CC3)on2)cn1 |  | inactive: 48.5%
O=S1(=O)c2ccccc2OC(COCc2ccccc2)CN1C1CC1 (stereo not drawn) |  | inactive: -16.8%
NC(Cc1ccc(Cl)cc1)c1csc(NC(=O)Nc2ccccc2-c2ccccc2)n1 (stereo not drawn) | inconclusive: 35.5 µM [inhibitor, single point] | 
COc1cccc(NC(=O)c2ccc(OC(F)(F)F)cc2)c1 | inconclusive: 4.47 µM [inhibitor, full curve] | 
CCCCNc1c(-c2ccc(SC(C)CC)cc2)nc2ccccn12 (stereo not drawn) | inconclusive: 22.4 µM [inhibitor, single point] | 
N=c1n(CCO)c2ccccc2n1CCOc1ccc(Cl)cc1Cl | inconclusive: 35.5 µM [inhibitor, single point] | 
